# This is one part of the list.
# B1: CLEC-1 (Homo sapiens), Q9NZH3 (protein)
# chain: MQAKYSSTRDMLDDDGDTTMSLHSQASATTRHPEPRRTEHRAPSSTWRPVALTLLTLCLVLLIGLAAWGLLFFQYYQLSNTGQDTISQMEERLGNTSQELQSLQVQNIKLAGSLQHVAEKLCRELYNKAGAHRCSPCTEQWKWHGDNCYQFYKDSKSWEDCKYFCLSENSTMLKINKQEDLEFAASQSYSEFFYSYWTGLLRPDSGKAWLWMDGTPFTSELFHIIIDVTSPRSRDCVAILNGMIFSKDCKELKRCVCERRAGMVKPESLHVPPETLGEGD
# Key:
# Assay in all cases: glycan array binding signal (z-score within array); higher = stronger binding
# Details in all cases: glycan notation: IUPAC condensed, linker removed
# Neu5Ac(a2-6)Gal(b1-4)Glc = target: Neu5Ac(a2-6)Gal(b1-4)Glc
# Procedure, shortened: (§1)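 The binding signal is a Z-score computed within each array and averaged over linkers. Arrays of the same protein sequence at different concentrations or buffers were also averaged together. Data originate from 3228 arrays in the Consortium for Functional Glycomics database, kept only where the protein sequence was available.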
# [1] = target: Neu5Ac(a2-6)Gal(b1-4)GlcNAc
# Procedure, shortened: as §1
# [2] = target: Neu5Ac(a2-6)Gal(b1-4)GlcNAc(b1-2)Man(a1-3)Man(b1-4)GlcNAc(b1-4)GlcNAc
# Procedure, shortened: as §1
# [3] = target: Neu5Ac(a2-6)Gal(b1-4)GlcNAc(b1-2)Man(a1-3)[Gal(b1-4)GlcNAc(b1-2)Man(a1-6)]Man(b1-4)GlcNAc(b1-4)GlcNAc
# Procedure, shortened: as §1
# [4] = target: Neu5Ac(a2-6)Gal(b1-4)GlcNAc(b1-2)Man(a1-3)[GlcNAc(b1-2)Man(a1-6)]Man(b1-4)GlcNAc(b1-4)GlcNAc
# Procedure, shortened: as §1
# [5] = target: Neu5Ac(a2-6)Gal(b1-4)GlcNAc(b1-2)Man(a1-3)[GlcNAc(b1-2)Man(b1-4)GlcNAc(b1-2)Man(a1-6)]Man(b1-4)GlcNAc(b1-4)GlcNAc
# Procedure, shortened: as §1
# [6] = target: Neu5Ac(a2-6)Gal(b1-4)GlcNAc(b1-2)Man(a1-3)[Man(a1-6)]Man(b1-4)GlcNAc(b1-4)GlcNAc
# Procedure, shortened: as §1
# [7] = target: Neu5Ac(a2-6)Gal(b1-4)GlcNAc(b1-2)Man(a1-3)[Neu5Ac(a2-6)Gal(b1-4)GlcNAc(b1-2)Man(a1-6)]Man(b1-4)GlcNAc(b1-4)GlcNAc
# Procedure, shortened: as §1
# [8] = target: Neu5Ac(a2-6)Gal(b1-4)GlcNAc(b1-2)Man(a1-6)Man(b1-4)GlcNAc(b1-4)GlcNAc
# Procedure, shortened: as §1
# [9] = target: Neu5Ac(a2-6)Gal(b1-4)GlcNAc(b1-2)Man(a1-6)[Gal(b1-4)GlcNAc(b1-2)Man(a1-3)]Man(b1-4)GlcNAc(b1-4)GlcNAc
# Procedure, shortened: as §1
# [10] = target: Neu5Ac(a2-6)Gal(b1-4)GlcNAc(b1-2)Man(a1-6)[GlcNAc(b1-2)Man(a1-3)]Man(b1-4)GlcNAc(b1-4)GlcNAc
# Procedure, shortened: as §1
# [11] = target: Neu5Ac(a2-6)Gal(b1-4)GlcNAc(b1-2)Man(a1-6)[Man(a1-3)]Man(b1-4)GlcNAc(b1-4)GlcNAc
# Procedure, shortened: as §1
# [12] = target: Neu5Ac(a2-6)Gal(b1-4)GlcNAc(b1-3)Gal(b1-3)GlcNAc
# Procedure, shortened: as §1
# [13] = target: Neu5Ac(a2-6)Gal(b1-4)GlcNAc(b1-3)Gal(b1-4)GlcNAc
# Procedure, shortened: as §1
# [14] = target: Neu5Ac(a2-6)Gal(b1-4)GlcNAc(b1-3)Gal(b1-4)GlcNAc(b1-3)Gal(b1-4)GlcNAc
# Procedure, shortened: as §1
# [15] = target: Neu5Ac(a2-6)Gal(b1-4)GlcNAc(b1-3)Gal(b1-4)[Fuc(a1-3)]GlcNAc(b1-3)Gal(b1-4)[Fuc(a1-3)]GlcNAc
# Procedure, shortened: as §1
# [16] = target: Neu5Ac(a2-6)Gal(b1-4)GlcNAc(b1-3)GalNAc
# Procedure, shortened: as §1
# [17] = target: Neu5Ac(a2-6)Gal(b1-4)GlcNAc6S
# Procedure, shortened: as §1
# Neu5Ac(a2-6)GalNAc = target: Neu5Ac(a2-6)GalNAc
# Procedure, shortened: as §1
# [18] = target: Neu5Ac(a2-6)GalNAc(b1-4)GlcNAc
# Procedure, shortened: as §1
# [19] = target: Neu5Ac(a2-6)GlcNAc(b1-4)GlcNAc
# Procedure, shortened: as §1
# [20] = target: Neu5Ac(a2-6)GlcNAc(b1-4)GlcNAc(b1-4)GlcNAc
# Procedure, shortened: as §1
# Neu5Ac(a2-8)Neu5Ac = target: Neu5Ac(a2-8)Neu5Ac
# Procedure, shortened: as §1
# [21] = target: Neu5Ac(a2-8)Neu5Ac(a2-3)Gal(b1-4)Glc
# Procedure, shortened: as §1
# [22] = target: Neu5Ac(a2-8)Neu5Ac(a2-3)[GalNAc(b1-4)]Gal(b1-4)Glc
# Procedure, shortened: as §1
# [23] = target: Neu5Ac(a2-8)Neu5Ac(a2-8)Neu5Ac
# Procedure, shortened: as §1
# [24] = target: Neu5Ac(a2-8)Neu5Ac(a2-8)Neu5Ac(a2-3)Gal(b1-4)Glc
# Procedure, shortened: as §1
# [25] = target: Neu5Ac(a2-8)Neu5Ac(a2-8)Neu5Ac(a2-3)[GalNAc(b1-4)]Gal(b1-4)Glc
# Procedure, shortened: as §1
# [26] = target: Neu5Ac(a2-8)Neu5Ac(a2-8)Neu5Ac(a2-8)Neu5Ac(a2-3)[GalNAc(b1-4)]Gal(b1-4)Glc
# Procedure, shortened: as §1
# Neu5Ac(b1-6)GalNAc = target: Neu5Ac(b1-6)GalNAc
# Procedure, shortened: as §1
# [27] = target: Neu5Ac(b2-6)Gal(b1-4)GlcNAc
# Procedure, shortened: as §1
# Neu5Ac(b2-6)GalNAc = target: Neu5Ac(b2-6)GalNAc
# Procedure, shortened: as §1
# [28] = target: Neu5Ac9Ac(a2-3)Gal(b1-3)GlcNAc
# Procedure, shortened: as §1
# [29] = target: Neu5Ac9Ac(a2-3)Gal(b1-4)GlcNAc
# Procedure, shortened: as §1
# [30] = target: Neu5Ac9Ac(a2-6)Gal(b1-4)GlcNAc
# Procedure, shortened: as §1
# [31] = target: Neu5Gc(a2-3)Gal(b1-3)GlcNAc
# Procedure, shortened: as §1
# [32] = target: Neu5Gc(a2-3)Gal(b1-3)[Fuc(a1-4)]GlcNAc
# Procedure, shortened: as §1
# Neu5Gc(a2-3)Gal(b1-4)Glc = target: Neu5Gc(a2-3)Gal(b1-4)Glc
# Procedure, shortened: as §1
# [33] = target: Neu5Gc(a2-3)Gal(b1-4)GlcNAc
# Procedure, shortened: as §1
# [34] = target: Neu5Gc(a2-3)Gal(b1-4)[Fuc(a1-3)]GlcNAc
# Procedure, shortened: as §1
# [35] = target: Neu5Gc(a2-6)Gal(b1-4)GlcNAc
# Procedure, shortened: as §1
# Neu5Gc(a2-6)GalNAc = target: Neu5Gc(a2-6)GalNAc
# Procedure, shortened: as §1
# [36] = target: Neu5Gc(b2-6)Gal(b1-4)GlcNAc
# Procedure, shortened: as §1
binder,measurement,setting,value
B1,glycan array binding signal (z-score),Neu5Ac(a2-6)Gal(b1-4)Glc,-0.117
same,glycan array binding signal (z-score),[1],0.663
same,glycan array binding signal (z-score),[2],0.029
same,glycan array binding signal (z-score),[3],0.082
same,glycan array binding signal (z-score),[4],-0.072
same,glycan array binding signal (z-score),[5],-0.292
same,glycan array binding signal (z-score),[6],-0.19
same,glycan array binding signal (z-score),[7],-0.067
same,glycan array binding signal (z-score),[8],0.031
same,glycan array binding signal (z-score),[9],-0.53
same,glycan array binding signal (z-score),[10],-0.401
same,glycan array binding signal (z-score),[11],-0.15
same,glycan array binding signal (z-score),[12],-0.31
same,glycan array binding signal (z-score),[13],-0.468
same,glycan array binding signal (z-score),[14],-0.43
same,glycan array binding signal (z-score),[15],0.011
same,glycan array binding signal (z-score),[16],-0.394
same,glycan array binding signal (z-score),[17],-0.437
same,glycan array binding signal (z-score),Neu5Ac(a2-6)GalNAc,-0.471
same,glycan array binding signal (z-score),[18],-0.107
same,glycan array binding signal (z-score),[19],0.208
same,glycan array binding signal (z-score),[20],-0.341
same,glycan array binding signal (z-score),Neu5Ac(a2-8)Neu5Ac,-0.318
same,glycan array binding signal (z-score),[21],0.443
same,glycan array binding signal (z-score),[22],-0.106
same,glycan array binding signal (z-score),[23],-0.346
same,glycan array binding signal (z-score),[24],-0.156
same,glycan array binding signal (z-score),[25],-0.15
same,glycan array binding signal (z-score),[26],-0.231
same,glycan array binding signal (z-score),Neu5Ac(b1-6)GalNAc,-0.392
same,glycan array binding signal (z-score),[27],-0.294
same,glycan array binding signal (z-score),Neu5Ac(b2-6)GalNAc,-0.441
same,glycan array binding signal (z-score),[28],-0.305
same,glycan array binding signal (z-score),[29],-0.268
same,glycan array binding signal (z-score),[30],-0.205
same,glycan array binding signal (z-score),[31],-0.313
same,glycan array binding signal (z-score),[32],-0.318
same,glycan array binding signal (z-score),Neu5Gc(a2-3)Gal(b1-4)Glc,-0.362
same,glycan array binding signal (z-score),[33],-0.24
same,glycan array binding signal (z-score),[34],0.294
same,glycan array binding signal (z-score),[35],0.065
same,glycan array binding signal (z-score),Neu5Gc(a2-6)GalNAc,-0.297
same,glycan array binding signal (z-score),[36],0.058
